# Experimental data: PubChem BioAssay (NCATS)
# Records with an inconclusive call do not appear. Calls come from the whole dose curve; as a rule, active = well fitted cell-killing curve with a large enough effect; inconclusive = small, poorly fitted or top-dose-only effect, or effect the other way; inactive = no such curve, though single readings can be large or run the other way. Not every entry of the source has a single result; some have several. They are shown here; other results are not. An entry can have further records. The records of an entry are repeats in other runs, samples, wells, individuals or studies.
# Test: Cell Viability qHTS for small molecule stabilizers of the endoplasmic reticulum resident proteome (AID 1508629);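 note: human SH-SY5Y neuroblastoma cells carrying the GLuc-SERCaMP reporter; compound exposure about 46 h in total before the viability read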
# Details: cell viability counter-screen, 100 nM thapsigargin for final 4 h
# % is set by controls: 0 for no effect and ±100 for the full control effect.
smiles,measurement,value
CC(C)(c1ccc(O)cc1)c1ccc(O)cc1,max response,"inactive: 22.5, 33.7, 22.1, 11.8, 46.1% [separate samples]"
